Data from PubChem BioAssay AID1347071 (National Center for Advancing Translational Sciences (NCATS), 2019).
About 260 (0.063%) of roughly 410,000 compounds were called active. The inconclusive results got no clear call from the source; some entries with a clear call stand among them for comparison. Calls follow the shape of the dose curve; as a rule, active = well fitted activation curve with a large enough effect; inconclusive = small, poorly fitted or top-dose-only effect; inactive = no such curve, though single readings can be large or run the other way. No potency is given beside an inconclusive call; the fits are too rough.
Potency is read from the fitted curve at half-maximal effect; tags tell the direction and shape of the fitted curve.

Assay: qHTS for compounds that reverse cellular toxicity of Amyloid beta (A-beta) peptide in yeast: Primary Screen; also: nearly all actives have a fitted effect of over 55% in size
Details: yeast expressing A-beta42, growth rescue, OD600, 48 h; growth rescue: at 46.1 µM (top of the series), 0% DMSO, 100% iron-clioquinol control
Outline: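 Yeast growth medium received pinned compounds, then yeast cells expressing toxic A-beta were added; plates incubated at 30 C for 48 hr. Growth read as absorbance at 600 nm, normalized to DMSO and equimolar FeCl3 plus clioquinol controls.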
In the case of `S=C(Nc1ccccc1)N1CCN(c2ccccc2)CC1`, the Potency is reported as inconclusive [activator, partial curve, poor fit].
For `Cc1cccc2sc(NNC(=O)c3ccc4c(c3)OCCO4)nc12`, the Potency was inconclusive [activator, single point].
In the case of `CC1CCN(C2=C(NS(=O)(=O)c3ccc(Cl)cc3)C(=O)c3ccccc3C2=O)CC1`, the Potency is reported as inconclusive [activator, single point].
In the case of `CC(NC(=S)NNS(=O)(=O)c1ccc(C(C)(C)C)cc1)c1ccccc1` (configuration not stated), the Potency is reported as inconclusive [activator, single point].
For `Cc1cccc(NC(=O)CN(C)S(=O)(=O)c2cnc[nH]2)c1`, the Potency was inconclusive [activator, partial curve, poor fit].
With `CCCN(CC(=O)Nc1cc(Cl)cc(Cl)c1)CC(=O)Nc1ccc(F)c(F)c1F` the Potency was inconclusive [activator, partial curve, poor fit].
For `CCOC(=O)C1CCN(C(=O)c2cc(COc3ccc(OC)c4ccccc34)on2)CC1`, the Potency was inconclusive [activator, partial curve, poor fit].
In the case of `COc1ccc(NC(=O)c2cc(C3CCCCN3C(=O)OCC(C)C)on2)c(C)c1` (configuration not stated), the Potency is reported as inconclusive [activator, single point].
For `CCc1ccccc1NC(=S)N(Cc1cccs1)C1CCCC1`, the Potency was inconclusive [activator, partial curve, poor fit].
With `Cc1cc(C)nc(-n2nc(C)cc2NC(=O)CN2CCc3ccccc3C2)n1` the Potency was inconclusive [activator, partial curve].
With `CCc1ccc(C(N)=S)cc1` the Potency was inconclusive [activator, single point].
For `O=C1N[C@@H](Cc2ccccc2)COC(=O)[C@H](Cc2ccc(F)cc2)CC/C=C/C[C@@H]1CC(=O)N(CCO)Cc1ccccc1`, the Potency was “inactive”.
With `Cc1cccc(NC(=S)NCCC(C)C)c1` the Potency was inconclusive [activator, partial curve, poor fit].
With `CC(C)(C)N1C(=O)[C@H]2[C@@H](c3ccc(Br)cc3)N3C(=O)N(c4cccc(Cl)c4)C(=O)[C@@]3(Cc3ccccc3)[C@H]2C1=O` the Potency was “inactive”.
For `O=C(NCc1nc2ccccc2[nH]1)C1=C[C@H](c2ccccc2)C[C@H](OCCCCO)O1`, the Potency was “inactive”.
For `CCn1nc(C)c(NC(=O)CC23CC4CC(CC(C4)C2)C3)c1C`, the Potency was inconclusive [activator, partial curve, poor fit].
In the case of `NNc1nc(-c2ccccc2)cc(-c2ccccc2)n1`, the Potency is reported as inconclusive [activator, partial curve, poor fit].
